Data: PubChem BioAssay AID493208 (National Center for Advancing Translational Sciences (NCATS), 2011)
About 340 (0.77%) of roughly 44,000 compounds were called active. About 5% were inconclusive and are not listed. Calls follow the shape of the dose curve; as a rule, active = well fitted inhibition curve with a large enough effect; inconclusive = small, poorly fitted or top-dose-only effect; inactive = flat fitted curve, though single readings scatter. The list shows a part of the results.

Test: Acumen qHTS Assay for Inhibitors of the mTORC1 Signaling Pathway in MEF (Tsc2-/-, p53-/-) Cells: Sytravon;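 also: plate controls were DMSO for no effect and rapamycin for full effect; nearly all actives have a fitted effect of over 50% in size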
Conditions: phospho-rpS6 immunofluorescence/PI, 24 h; series mostly up to 38.3 µM; activity change, negative = inhibition: at the top concentration
In short: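 Tsc2-/-, p53-/- mouse embryonic fibroblasts (empty-vector line) exposed to compound 24 hrs at 37 C, fixed, immunostained for phospho-rpS6 and counterstained with propidium iodide. Acumen laser scanning gives % positive cells from Alexa 488/PI ratio, thresholded using 7.5 nM rapamycin; PI count gives viability.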

Activity change, negative = inhibition, inactive:
Cc1cccc(CNC(=O)Cn2nc(C)c3nn(-c4ccc(Cl)cc4)c(C)c3c2=O)c1 -0.573%
O=C(CSc1nc(Nc2ccccc2)c2ccccc2n1)c1ccc(Cl)cc1 -0.364%
Cc1ccccc1Nc1c(-c2c[nH]c3ccccc23)nc2ccc(Cl)cn12 -4.48%
Cc1cc(C)cc(NC(=O)NCc2c(-n3cccc3)sc3c2CCCC3)c1 0.0685%
COC(=O)c1scc(-c2ccc(C)cc2)c1S(=O)(=O)Nc1cc(C)c(Cl)cc1OC 0%
Clc1cccc(CNCCCSc2nnnn2-c2ccccc2)c1 -12.1%
Cc1cccc(N2CCN(C(=O)CCS(=O)(=O)c3ccc4c(c3)CC(=O)N4C)CC2C)c1 (stereo unspecified) 9.96%
Cc1cccc(C(c2sc3nc(-c4ccco4)nn3c2O)N2CCOCC2)c1 (stereo unspecified) -1.25%
CCCCOC(=O)c1ccc(NC(=O)c2ccc3c(c2)CCN3S(C)(=O)=O)cc1 -3.63%
CC(=O)N1CCN(c2csc3ccc(Cl)cc3c2=O)CC1 -16.6%
Cc1ccc(NS(=O)(=O)c2ccc3c(c2)n(C)c(=O)n3C)c(C)c1 -3.22%
O=C(NCCc1cccs1)c1ccc(Cn2c(SCc3cccc(F)c3)nc3cccnc32)cc1 -0.79%
Fc1cccc(CN2CCc3nc(Nc4ccc5c(c4)OCCO5)ncc3C2)c1F 18.6%
Cc1ccccc1S(=O)Cc1ccc(C(=O)NCc2ccccc2Cl)o1 (stereo unspecified) -0.0503%
Cc1ccc(CSC2=NC(C)(C)Nc3ccccc32)c(C)c1 -1.12%
COc1ccc(-c2csc3ncnc(Nc4ccccc4)c23)cc1 0%
CCOc1ccccc1NC(=O)Cn1c(=O)oc2ccccc21 -1.42%
COc1ccc(-c2noc(N3CCC(C(=O)N4CCN(c5cccc(OC)c5)CC4)CC3)n2)cc1 -10.8%
CCOC(=O)c1c(-c2ccccc2)oc2ccc(OCc3ccccc3Br)cc12 8.2%
COc1ccc(NC(=O)Cn2cc(C(=O)c3ccc(C)c(C)c3)c(=O)c3cc(OC)ccc32)cc1 -2.17%
COc1cc(C2C=C(C(=O)O)Nc3ncnn32)ccc1O (stereo unspecified) -3.29%
CCOc1ccc2c(c1)c(=O)c(C(=O)c1ccc(CC)cc1)cn2CC(=O)Nc1ccc2c(c1)OCCO2 2.96%
COc1cccc(NC(=O)Cn2c(=O)n(CCC(=O)NCc3ccccc3OC)c(=O)c3ccccc32)c1 -10.4%
COc1ccc(Cl)cc1NC(=O)Cn1c(=O)n2nc(-c3ccccc3)nc2c2ccccc21 -11.2%
COc1ccc(C)c2sc(N(Cc3cccnc3)C(=O)c3cccs3)nc12 3.08%
Cc1ccc(NC(=O)Cn2cc3c(n2)CCCC3)cc1Cl 1.12%
CCN1CCc2c(sc(-n3cccc3)c2C(C)NC(=O)Nc2ccc(C(=O)OC)cc2)C1 (stereo unspecified) -9.81%
COc1ccc(CNS(=O)(=O)c2ccc(-c3cc(C(F)(F)F)on3)s2)cc1OC -10.4%
COc1ccc(CNC(=O)c2nn(C)c3c2CSc2ccccc2-3)cc1 -2.81%
O=C(Nc1cccc(F)c1)c1cnc2sc(N3CCCC3)nn2c1=O 5.01%
COc1ccc(-c2csc(-c3c(N)c(C(=O)c4ccc(OC)c(OC)c4)n4ccccc34)n2)cc1 1.35%
COc1ccc(N(C)S(=O)(=O)c2ccc3c(c2)CCN3C(=O)CCC(=O)O)cc1 1.68%
Cc1ccc(NC(=O)Cn2c(=O)n(Cc3ccccc3)c(=O)c3c(C)c(C(=O)N(C)C)sc32)c(C)c1 -0.623%
COc1ccc(NC(=O)c2ccco2)cc1NC(=O)c1ccccc1[N+](=O)[O-] -10.2%
CCc1cccc(C)c1Nc1nn2c(=O)c3ccccc3nc2s1 0.632%
COc1cc(-c2cc(OC)c3c(C)oc(C)c3c(=O)c2)ccc1OC(=O)c1cccc(C)c1 0.0686%
Cc1nn(S(=O)(=O)c2ccc(F)cc2)c(C)c1S(=O)(=O)N1CCCCCC1 2.36%
Cc1ccc(CNC(=O)c2ccc3c(c2)c(C)c(C)n3Cc2ccc(Cl)cc2)o1 -3.41%
CCCc1cc(=O)[nH]c(SCc2nc(-c3ccc(OCC)cc3)no2)n1 4.63%
Cc1ccc(-c2noc(-c3ccc(N4CCCC4)c([N+](=O)[O-])c3)n2)cc1 0%
Cc1ccc(C(=O)Nc2c(C(=O)Nc3ccc(C)c(C)c3)sc3nc(C)cc(C)c23)cc1 -1.12%
Cc1ccc(C2C=C(c3ccccc3)Nc3nc(NS(C)(=O)=O)nn32)cc1 (stereo unspecified) 2.69%
Cc1c(-c2ccccc2)c(=O)oc2c(CN3CCOCC3)c(O)ccc12 3.03%
COc1ccc(NC(=O)C2CCN(c3cc(C)nc4c(-c5ccc(Cl)cc5)c(C)nn34)CC2)cc1 -7.06%
CCOc1ccc(C2C(C(=O)Nc3ccc(OC)cc3)=C(C)Nc3nc(CCCO)nn32)cc1 (stereo unspecified) -12.4%
CCc1cccc(C)c1NC(=O)CSc1nc2ccncc2[nH]1 -0.4%
COc1cccc(NS(=O)(=O)c2ccc3[nH]cc(C(=O)NC(C)c4ccccc4)c(=O)c3c2)c1 (stereo unspecified) -12.7%
CCOC(=O)C1CCN(Cc2cn3c(-c4ccc(OC)cc4)nnc3s2)CC1 0.128%
Cc1cccc(NC(=O)c2cn(-c3ccccc3)nc2-c2ccccc2)c1C 1.69%
Cc1ccccc1CN1CCCN(CC(=O)Nc2ccc(F)cc2)S1(=O)=O 3.68%
Cc1ccc(NC(=O)Cn2c(=O)n(Cc3ccc4c(c3)OCO4)c(=O)c3oc4ccccc4c32)cc1C -3.2%
Cc1ccc(OCCCCn2c(-c3ccc(Cl)cc3)nc3ccccc3c2=O)cc1 -9.48%
Cc1ccc(/C=C/C(=O)Nc2ccc3nc(N4CCC(C)CC4)cc(C)c3c2)cc1 -5.62%
CCOc1ccc(C(=O)Nc2ccc3nc(N(CC)CC)cc(C)c3c2)cc1 -9.88%
Cc1cc(N2CCC(C(=O)Nc3ccc(F)cc3F)CC2)n2nc(C)c(-c3ccc(Cl)cc3)c2n1 1.32%
Cn1c(=O)oc2cc(S(=O)(=O)NC(Cc3ccccc3)C(=O)Nc3ccc(F)c(Cl)c3)ccc21 (stereo unspecified) -2.02%
CCN(c1cccc(C)c1)S(=O)(=O)c1cc2c(cc1C)n(C)c(=O)c(=O)n2C -0.986%
CCOc1cccc2sc(NC(=O)c3ccc(S(=O)(=O)N4CCCCC4C)cc3)nc12 (stereo unspecified) 0.534%
O=C(c1cc(-c2ccc(Cl)cc2)n[nH]1)N1CCN(S(=O)(=O)c2ccc(Br)s2)CC1 -15.4%
CCOC(=O)c1c(C)[nH]c(C)c1S(=O)(=O)N1CCN(c2cc(Cl)ccc2C)CC1 3.75%
Cc1nnc(NC(=O)c2nc(SC(C)C)ncc2Cl)s1 1.85%
Clc1ccccc1Cn1c(-c2cccs2)nc2ccccc21 1.78%
CCOc1ccc(NC(=O)c2sc(-n3nc(C)c(Cc4ccc(Cl)cc4)c3C)nc2C)cc1 -1.57%
CCOC(=O)c1c(-c2ccc(C)cc2)csc1NC(=O)c1cc(-c2ccc(OC)cc2)on1 -1.78%
COc1ccc(CCNS(=O)(=O)c2c(C)nc3sc(C)cn3c2=O)cc1OC -10.7%
Cc1cc(Nc2cccc(C(=O)O)c2)n2nc(C)nc2n1 0.0442%
Cc1cccc(NC(=O)CN(C)S(=O)(=O)c2ccc3c(c2)c(=O)n(C)c(=O)n3C)c1C -12.6%
CCCn1c2ccccc2c2cnn(CC(=O)NCCN(CC)CC)c(=O)c21 -16.8%
COc1ccc(CCNC(=O)c2ccc3c(c2)N=C(C)c2ccccc2S3)cc1OC -24.1%
COc1ccc(-c2nc3ccccc3o2)cc1NC(=O)c1cccnc1 2%
COc1ccc(NC(=O)NC(C)c2c(-n3cccc3)sc(C)c2C)cc1OC (stereo unspecified) 0.147%
CCOc1c(Cl)cc(CNc2ccc3[nH]c(=O)[nH]c3c2)cc1OC -15.7%
CCN(CC)CCCNC(=O)c1ccc2c(c1)sc1nc(-c3ccc(C)cc3)cn12 5.52%
CCCCOc1ccc(C(=O)Nc2cc(-c3cn4cccnc4n3)ccc2OC)cc1 -5.64%
CCOC(=O)c1[nH]c2c(c1Cc1ccccc1)C(=O)CC(c1ccc(C(C)(C)C)cc1)C2 (stereo unspecified) -24.6%
CCOC(=O)C1CCN(C(=O)c2cnn(-c3ccc(F)cc3)c2-n2cccc2)CC1 1.17%
COc1ccc(C(=O)Nc2nc3c(s2)Cc2c(Br)ccc(OC)c2-3)cc1OC -2.18%
Cc1cc(C)cc(N(CC(=O)Nc2c(C)cc(C)cc2C)S(=O)(=O)c2c(C)nn(C)c2C)c1 0%
CCc1ccc(NC(=O)CSc2nnc(CC)c(CC)n2)cc1 6.64%
CCN(CC)S(=O)(=O)c1cc(-c2ccc(=O)n(C(C)C(=O)Nc3cccc(C#N)c3)n2)ccc1C (stereo unspecified) -3.27%
Cc1ccc(Cn2c(CN3CCC(C(=O)O)CC3)cc3ccccc32)cc1 -1.21%
COc1ccc(-c2noc(CSc3nnc(Cc4ccccc4)n3-c3ccc(F)cc3)n2)cc1 -5.44%
CN(CC(=O)Nc1ccc(F)cc1F)S(=O)(=O)c1cccc2nsnc12 2.86%
CC(C)NC(=O)C1CCCN(c2ncnc3onc(-c4ccc(F)cc4)c23)C1 (stereo unspecified) -0.992%
CCOc1ccccc1NC(=O)CCS(=O)(=O)c1ccc2c(c1)oc(=O)n2C -11.4%
CCOc1cc(-c2nnc(SCC(=O)NC3CCCCC3)nc2-c2ccc(OC)c(OCC)c2)ccc1OC -0.229%
CCOC(=O)C(C)Sc1nnc2cc(C)c3ccccc3n12 (stereo unspecified) -0.408%
COc1ccc2oc(-c3cccc(NC(=O)c4cc([N+](=O)[O-])ccc4N4CCOCC4)c3)nc2c1 -11.1%
COc1cc(C2c3c(-c4c(C)cc(C)cc4O)n[nH]c3C(=O)N2Cc2ccco2)cc(OC)c1OC (stereo unspecified) -14.4%
COc1ccc(Nc2ncc3c(n2)CCN(Cc2sccc2C)C3)c(OC)c1 0%
COc1ccc2c(CNCCc3ccco3)c(C(=O)O)n(Cc3ccc(C)cc3)c2c1 -0.983%
O=C(Cn1ncc2c3ccccc3n(Cc3ccccc3)c2c1=O)NCc1ccccn1 -0.29%
Cc1ccccc1CNC(=O)C1CCCCN1S(=O)(=O)c1ccc(F)cc1 (stereo unspecified) -2.7%
COc1ccc(C(CNC(=O)c2oc3cc(Br)ccc3c2C)N2CCCCC2)cc1 (stereo unspecified) 3.36%
O=[N+]([O-])c1ccc(S(=O)(=O)N2CCn3cccc3C2c2ccc(Br)cc2)cc1 (stereo unspecified) -4.6%
COc1ccc(OC)c(-c2cc(C(=O)Nc3c(C)nn(Cc4ccc(C)cc4)c3C)no2)c1 -19%
